# In paper PMC4336329 (PLoS ONE, 2015):
# The whole screen tested about 310,000 compounds, of which about 2,200 (0.71%) showed an effect of 50% or more. Effects have a minus sign here. Some of the results follow.
# Biological target: human ether-à-go-go-related gene (hERG) potassium channel (human, UniProt Q12809)
# Experiment: primary screen, population patch clamp on CHO cells stably expressing hERG
# human ether-à-go-go-related gene (hERG) potassium channel, sequence (Q12809 whole entry, looked up): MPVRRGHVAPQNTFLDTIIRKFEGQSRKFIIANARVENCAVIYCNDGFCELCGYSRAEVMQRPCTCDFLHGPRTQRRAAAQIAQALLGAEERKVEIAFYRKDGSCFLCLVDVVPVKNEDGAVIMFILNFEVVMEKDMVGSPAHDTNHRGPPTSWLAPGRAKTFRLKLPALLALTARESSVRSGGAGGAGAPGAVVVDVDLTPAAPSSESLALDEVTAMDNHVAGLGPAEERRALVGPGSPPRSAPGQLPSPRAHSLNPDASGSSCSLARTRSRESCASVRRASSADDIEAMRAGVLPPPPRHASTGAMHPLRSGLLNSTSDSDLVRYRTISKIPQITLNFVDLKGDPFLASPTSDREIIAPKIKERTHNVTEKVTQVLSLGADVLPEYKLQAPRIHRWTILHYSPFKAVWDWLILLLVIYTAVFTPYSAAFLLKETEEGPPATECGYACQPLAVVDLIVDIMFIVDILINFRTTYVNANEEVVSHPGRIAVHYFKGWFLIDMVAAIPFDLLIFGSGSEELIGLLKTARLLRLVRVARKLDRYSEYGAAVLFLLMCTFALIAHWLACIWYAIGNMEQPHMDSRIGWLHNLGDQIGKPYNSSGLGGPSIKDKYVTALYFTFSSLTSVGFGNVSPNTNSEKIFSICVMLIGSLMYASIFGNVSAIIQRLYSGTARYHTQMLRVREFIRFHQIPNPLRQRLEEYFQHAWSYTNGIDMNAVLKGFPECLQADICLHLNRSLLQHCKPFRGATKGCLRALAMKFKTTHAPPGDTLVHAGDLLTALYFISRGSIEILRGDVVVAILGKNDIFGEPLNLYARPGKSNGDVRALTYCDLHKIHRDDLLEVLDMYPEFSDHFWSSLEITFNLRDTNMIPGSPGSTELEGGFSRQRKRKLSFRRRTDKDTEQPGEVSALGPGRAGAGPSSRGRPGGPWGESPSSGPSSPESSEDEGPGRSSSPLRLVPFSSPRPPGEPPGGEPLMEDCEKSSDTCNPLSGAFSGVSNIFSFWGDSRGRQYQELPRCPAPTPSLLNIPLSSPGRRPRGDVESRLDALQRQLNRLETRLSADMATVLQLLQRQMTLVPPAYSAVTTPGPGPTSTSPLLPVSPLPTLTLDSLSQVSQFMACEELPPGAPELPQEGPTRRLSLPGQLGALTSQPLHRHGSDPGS
row,SMILES,"hERG current change (%, negative = inhibition) at 1uM"
1,COc1cc(C(=O)NCc2nnc(SCC(=O)N3CCc4ccccc43)o2)cc(OC)c1OC,6.06%
2,CCOC(=O)NCCOC(=O)Nc1ccc(Cl)cc1,-2.45%
3,CCOC(=O)c1ccc(-c2c(C(=O)OCC)oc3cc(O)c(CC)cc3c2=O)o1,1.44%
4,C=CCN=c1scc(-c2ccccc2)n1/N=C/c1ccccn1,8.91%
5,Cc1noc(C(=O)Nc2ccc(Cl)cc2)c1Cl,13%
6,CCOC(=O)C1=C(NC(=S)NC(=O)c2ccccc2)c2ccccc2CC1C(C)C (centres unmarked),17.9%
7,Cc1ccc(-c2nnc(SCCC(=O)N3CCOCC3)o2)cc1,14.7%
8,COc1cc(/C=N/NC(=O)c2ccc(=O)[nH]n2)ccc1O,2.75%
9,O=C(COc1ccc(Cl)cc1)NC1CCSC1=O (centres unmarked),4.51%
10,CCCCc1nc(NCCN2CCOCC2)c(C#N)c2c1COC(C)(C)C2,2.05%
11,O=C(Nc1ccccc1)c1cccc(N2C(=O)C3C4CC(C(Br)C4Br)C3C2=O)c1 (centres unmarked),12.6%
12,O=CN1CCN(S(=O)(=O)c2ccc(S(=O)(=O)NC3CCCCC3)cc2)CC1,4.77%
13,Cc1ccc(NC(=O)CN(c2ccc(Cl)cc2)S(=O)(=O)c2cc([N+](=O)[O-])ccc2Cl)c(C)c1,9.92%
14,Cc1cc(/C=C(\C#N)C(=O)Nc2ccccc2)c(C)n1-c1ccc(C(=O)O)cc1,-3.25%
15,O=C(O)COc1c(Cl)cc(/C=C2/NC(=O)NC2=O)cc1Br,9.64%
16,CCn1cc(S(=O)(=O)N2CCN(Cc3ccc(F)cc3)CC2)cn1,10.6%
17,N#C/C(=N\Nc1ccc(F)cc1)C(=N)N1CCCCC1,-3.77%
18,CC(C)(C)C(=O)O/N=C(\N)COc1cccc(Cl)c1,15.3%
19,O=C(COC(=O)c1ccccc1Br)NCCc1ccc(F)cc1,7.64%
20,C/C(=N/NC(=O)c1ccoc1C)c1ccc(NC(=O)C2CCCC2)cc1,13.5%
21,Cc1ccnc(N=Cc2nc(-c3ccccc3Br)oc2O)c1,6.12%
22,CCOC(=O)c1c(C)n(-c2ccc(C)cc2)c2ccc(OCC(O)CNCC3CCCO3)cc12.O=C(O)C(=O)O (centres unmarked),-0.393%

row,SMILES,"hERG current change (%, negative = inhibition) at 1uM"
1,Cc1ccc(S(=O)(=O)NC(CC(C)C)C(=O)N2CCN(C/C=C/c3ccccc3)CC2)cc1 (centres unmarked),12.4%
2,COc1ccccc1OCC(=O)NCCNC(=O)COc1ccccc1OC,7.38%
3,N#CCC(CNc1ncc(C(F)(F)F)cc1Cl)OC(=O)c1c(F)cccc1F (centres unmarked),11.6%
4,Cc1cccc(CNc2ccc(C(CC(N)=O)NC(=O)c3ccccc3)cc2[N+](=O)[O-])c1 (centres unmarked),5.97%
5,Cc1ccc(NC(=O)CCC(=O)NNS(=O)(=O)c2ccccc2)c(C)c1,12.3%
6,CCc1ccc2[nH]c(=O)c(C3C(C#N)=C(N)Oc4c3ccc3cccnc43)cc2c1 (centres unmarked),3.55%
7,CC(=O)c1ccc(NC(=S)N(C)C2CCN(C)CC2)cc1,2.29%
8,CCN(CC)Cc1cc2ccccc2c2c1COC2,-21.5%
9,O=C1NC(=O)C(CCc2ccccn2)(Cc2ccc3c(c2)OCO3)C(=O)N1CCc1ccccc1 (centres unmarked),6.21%
10,CCNC1CCS(=O)(=O)C1 (centres unmarked),13.2%
11,Cc1ccc(NC(=O)c2ccc(Cl)cc2Cl)cc1O,5.61%
12,CCCC(=O)Nc1ccc2c(c1)nc1n2CCN(CCOC)C1,10.5%
13,COc1ccc(/C=N/NC(=O)c2ccc(=O)[nH]n2)cc1OC,13%
14,CNC(=O)CSc1cnc2ccccc2n1,2.19%
15,CC(=O)N1CCN(S(=O)(=O)c2cccc(C(=O)NC3CCCC3)c2)CC1,6.03%
16,CC1=CC2/C=C(\C)CCC(O)C(O)/C=C/C(=O)C23C(=O)NC(CC(C)C)C3C1C (centres unmarked),12.7%
17,CC1CCN(C(=O)CCS(=O)(=O)c2cc3c(cc2Cl)NC(=O)CO3)CC1,-16.3%
18,Cc1ccc(C)c(COC(=O)c2cc([N+](=O)[O-])ccc2N2CCOCC2)c1,9.39%
19,CCCNC(=O)CSCc1nc(-c2ccc(SC)cc2)oc1C,12.9%
20,CCCN[C@@H]1C(=O)N2C(C(=O)OCCC)=C(C)CS[C@H]12,7.14%
21,COc1ccc(OCCn2cc(/C=C(\C#N)C(=O)NCc3ccco3)c3ccccc32)cc1,15.5%
22,Cc1ccc(C)c(NC(=O)COC(=O)CCc2ccc(S(=O)(=O)N3CCOCC3)cc2)c1,6.79%
